This passage reports Kd results from article PMC2171497 (The Journal of Cell Biology, 2005).

The assay deals with preassembled microtubules (MTs) of bovine brain tubulin (bovine, UniProt Q6B856). Description: co-sedimentation.

B1: τ (tau) from bovine brain (natural protein)
chain: not shown
On to B1, for which the Kd (as a rule, the equilibrium constant for the complex coming apart) stood at 1240 ± 300 nM.
